From PubChem BioAssay AID624296 (National Center for Advancing Translational Sciences (NCATS), 2012)
Out of some 350,000 compounds screened, about 9,900 (2.8%) were called active. This list was built around the results that the source calls inconclusive (neither active nor inactive); the mix of calls is not that of the screen. Calls come from the whole dose curve; as a rule, active = well fitted activation curve with a large enough effect; inconclusive = small, poorly fitted or top-dose-only effect; inactive = no such curve, though single readings can be large or run the other way. Potencies of inconclusive entries are left out as doubtful fits.

Assay: A quantitative high throughput screen for small molecules that induce DNA re-replication in MCF 10a normal breast cells. Note: nearly all actives have a fitted effect of over 50% in size.
Conditions: MCF 10A DNA re-replication, Hoechst nuclear intensity, 48 h; series mostly up to 46.1 µM
Potency is the fitted concentration of half-maximal effect; tags give direction and shape of the fitted curve.

SMILES | Potency
O=C(Cn1c(CCCO)nc2ccccc21)Nc1ccccc1-c1ccccc1 | inactive
Cc1ccc(C(=O)N/C(=C\c2cn(C)c3ccccc23)C(=O)NCCCN2CCOCC2)cc1 | inactive
Fc1cccc(-c2ncc(-c3ccccc3)o2)c1 | inconclusive [activator, single point]
Cc1ccc(NC(=S)Nc2cccc3cnccc23)c(C)c1 | inconclusive [activator, partial curve, poor fit]
COc1ccccc1/C=C/C(=O)c1ccc(NC(C)=O)cc1 | active: 16.4 µM
Cc1cccc(C)c1OCc1cc(C(=O)N2CCCC2c2nonc2C)no1 (centres undefined) | active: 8.2 µM
C#CC[N+](C)(C)CCCCCCCCC | active: 9.2 µM
COc1cccc(N2CC(O)=C(c3nc4ccccc4c(=O)[nH]3)C2=N)c1 | inactive
CCOc1ccc(-c2nnn(CC#N)n2)cc1OC | active: 10.3 µM
COCc1c(C(=O)Nc2ccc3nc(N4CCOCC4)sc3c2)oc2ccccc12 | inconclusive [activator, partial curve, poor fit]
Cc1ccc(C(=O)Nc2cccc(-c3nc4ncccc4o3)c2)cc1 | inconclusive [activator, partial curve, poor fit]
COc1cccc(NC(=O)C2C3C=CC4(O3)C2C(=O)N(CCCN2CCCCC2)C4C(=O)NC2CCCCC2)c1 (centres undefined) | inactive
COc1cc2c(cc1OC)C(C)N(C(=O)Nc1ccc(F)cc1)CC2 (centres undefined) | inconclusive [activator, partial curve, poor fit]
CC(C)Cn1c(SCC#N)nc2ccccc2c1=O | inconclusive [activator, single point]
Cc1ccc(S(=O)(=O)N2CCN(C(=O)COC(=O)Cc3c(F)cccc3Cl)CC2)c(C)c1 | inactive
Brc1cc(-c2ccccc2)nc(-c2ccccc2)n1 | inconclusive [activator, single point]
CN(CC(=O)NC(=O)NCc1ccccc1)Cc1cccc(Cl)c1Cl | inconclusive [activator, partial curve, poor fit]
O=C1c2[nH]nc(-c3ccccc3O)c2C(c2ccccc2)N1Cc1ccco1 (centres undefined) | inconclusive [activator, single point]
CC1(c2ccc(Cl)cc2Cl)OCC(Cn2ccnc2)O1 (centres undefined) | inconclusive [activator, single point]
CCCN(CC(=O)Nc1ccc(C)cc1Br)CC(=O)Nc1ccc(F)c(F)c1F | inconclusive [activator, single point]
COc1ccc(-c2cc(C(F)(F)F)nc(SCC(=O)Nc3sc4c(c3C#N)CCC4)n2)cc1 | inconclusive [activator, single point]
Cc1cc(C)cc(NC(=O)c2cccc(N3C(=O)C4C5C=CC(C5)C4C3=O)c2)c1 (centres undefined) | inactive

SMILES | Potency
CN(C(=O)CSc1nc2ccc([N+](=O)[O-])cc2s1)C1CCS(=O)(=O)C1 (centres undefined) | inactive
O=C(NCC1CCCO1)C1CCN(S(=O)(=O)c2cccnc2)CC1 (centres undefined) | inconclusive [activator, partial curve, poor fit]
O=C(CSc1ncccc1-c1nc2ccccc2[nH]1)NC1CC1 | inconclusive [activator, single point]
CCOC(=O)C1CCN(c2cc3c(cc2NC(=O)c2ccccc2OCC)n(C)c(=O)n3C)CC1 | inconclusive [activator, partial curve, poor fit]
Cc1noc(C)c1COC(=O)c1cnc(Cl)c(Cl)c1 | inconclusive [activator, single point]
Cc1cccc(C)c1OCc1cc(C(=O)N2CCC(C3CCCCC3)C2)no1 (centres undefined) | inconclusive [activator, single point]
COc1ccc(NCc2nnc(SCC(=O)NCc3ccco3)n2-c2ccccc2OC)cc1 | inconclusive [activator, single point]
Oc1cccc(/C=N/Nc2cc(N3CCOCC3)nc(N3CCOCC3)n2)c1 | inconclusive [activator, single point]
COc1ccc(/C=C/c2c([N+](=O)[O-])c(=O)n(C)c(=O)n2C)cc1 | inactive
CCOC(=O)/C=c1\s/c(=C\c2c(OCC)ccc3ccccc23)c(=O)n1CC(=O)NCC1CCCO1 (centres undefined) | inconclusive [activator, single point]
Cc1nc2ccccn2c1-c1csc(Nc2ccc(C(=O)O)cc2)n1 | active: 11.6 µM
COc1ccc(N(CC(=O)NCCSc2ccccn2)S(C)(=O)=O)cc1 | inactive
O=C(c1cc(COc2ccc3ncccc3c2)on1)N1CCC[C@H]1CO | inactive
N#Cc1ccc(OCC(=O)N2CCN(S(=O)(=O)c3ccc(Cl)s3)CC2)cc1 | inconclusive [activator, single point]
COc1cc(C(C)=O)ccc1OCC(O)CN1CCN(c2ccccc2)CC1 (centres undefined) | inconclusive [activator, partial curve, poor fit]
CCN(C(=O)CSc1nc2scc(-c3ccccc3)c2c(=O)n1C)C1CCS(=O)(=O)C1 (centres undefined) | inactive
O=C1C=C(O)c2cccc3cccc1c23 | inconclusive [activator, single point]
CN1CCN(c2ccc(NC(=O)CSc3ccccc3)cc2F)CC1 | inconclusive [activator, partial curve]
Cc1ccccc1-c1n[nH]c(=S)n1/N=C/C=C/c1ccco1 | inconclusive [activator, single point]
CCc1ccc2oc(C(=O)N3CCN(c4ccccc4OC)CC3)cc(=O)c2c1 | active: 11.6 µM
CC(C)C[C@H](NC(=O)c1nc[nH]c1C(=O)N[C@@H](CCCCNC(=O)OC(C)(C)C)C(=O)OC(C)(C)C)C(=O)OCc1ccccc1 | inconclusive [activator, single point]
CC1=C(C(=O)OCc2ccccc2)C(c2ccc(Cl)cc2Cl)NC(=O)N1CCCCCC(=O)O (centres undefined) | inconclusive [activator, single point]
